Source: the supplement of paper PMC4967469
Lines with a small IC50 respond at low doses; a fit beyond the top or the lowest dose is shown as a bound at that dose. The AUC spans the tested range (256-fold, ending at the top dose) of the same fit; values near 1 show little effect. For some assays here: The top dose, if marked as inferred, comes from the curve model; the source does not state it. For some assays here: Where an entry number is given, a second screen of the drug exists; the two often differ.

Legend:
Assay in all cases: Viability of human cancer cell lines after 72 h of drug (GDSC screen)
CHIR-99021 = compound: Cc1cnc(-c2cnc(NCCNc3ccc(C#N)cn3)nc2-c2ccc(Cl)cc2Cl)[nH]1 [CHIR-99021]
Method: (§1)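 Human cancer cell lines in 384-well plates, medium with 10% serum, drug for 72 h over a 256-fold dose range (nine 2-fold or five 4-fold steps up to the top dose). Adherent lines were fixed and stained with the nucleic acid dye Syto60, suspension lines read with resazurin; signal relative to control wells, capped at 0 and 100%. One two-parameter sigmoid per drug and line, fitted in a mixed model over all curves with the slope shared within a line.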

CP466722 = compound: COc1cc2ncnc(-n3nc(-c4ccccn4)nc3N)c2cc1OC [CP466722]; conditions: top dose 16 µM; top dose inferred
Method: as §1

GSK269962A = compound: CCn1c(-c2nonc2N)nc2cnc(Oc3cccc(NC(=O)c4ccc(OCCN5CCOCC5)cc4)c3)cc21 [GSK269962A]; conditions: top dose inferred
Method: as §1

Zibotentan = compound: COc1nc(C)cnc1NS(=O)(=O)c1cccnc1-c1ccc(-c2nnco2)cc1 [Zibotentan]; conditions: top dose 20 µM; top dose inferred
Method: as §1

CMK = compound: Cc1ccc(-c2c(C(=O)CCl)n(CCCO)c3ncnc(N)c23)cc1 [CMK]; conditions: top dose 4 µM; top dose inferred
Method: as §1

MPS-1-IN-1 = compound: COc1cc(N2CCC(O)CC2)ccc1Nc1cc(Nc2ccccc2S(=O)(=O)C(C)C)c2cc[nH]c2n1 [MPS-1-IN-1]; conditions: top dose 20 µM; top dose inferred
Method: as §1

(5Z)-7-Oxozeaenol = compound: COc1cc(O)c2c(c1)/C=C/C[C@H](O)[C@H](O)C(=O)/C=C\C[C@H](C)OC2=O [(5Z)-7-Oxozeaenol]; conditions: top dose 10 µM; top dose inferred
Method: as §1

ABT-888 = compound: C[C@]1(c2nc3c(C(N)=O)cccc3[nH]2)CCCN1 [ABT-888]; conditions: top dose 5 µM; top dose inferred
Method: as §1

KU-55933 = compound: O=c1cc(-c2cccc3c2Sc2ccccc2S3)oc(N2CCOCC2)c1 [KU-55933]; conditions: top dose 10 µM
Method: as §1

Cytarabine = compound: Nc1ccn([C@@H]2O[C@H](CO)[C@@H](O)[C@@H]2O)c(=O)n1 [Cytarabine]; conditions: top dose 2 µM
Method: as §1

Thapsigargin = compound: C/C=C(/C)C(=O)O[C@H]1C(C)=C2[C@H]([C@@H]1OC(=O)CCCCCCC)[C@@](C)(OC(C)=O)C[C@H](OC(=O)CCC)[C@@]1(O)[C@H]2OC(=O)[C@@]1(C)O [Thapsigargin]; conditions: top dose 0.512 µM; top dose inferred
Method: as §1

ABT-869 = compound: Cc1ccc(F)c(NC(=O)Nc2ccc(-c3cccc4[nH]nc(N)c34)cc2)c1 [ABT-869]; conditions: top dose 1.024 µM; top dose inferred
Method: as §1

QL-X-138 = compound: C=CC(=O)Nc1cc(-n2c(=O)ccc3cnc4ccc(-c5cn[nH]c5)cc4c32)ccc1C [QL-X-138]; conditions: top dose 10.24 µM; top dose inferred
Method: as §1

[1] = top dose 2.56 µM, screen: GDSC drug entry 154
[2] = top dose 10 µM, screen: GDSC drug entry 1241, top dose inferred
[3] = top dose 2.5 µM, screen: GDSC drug entry 127
[4] = top dose 5 µM, screen: GDSC drug entry 1192

| Cell Line | AUC (CHIR-99021; [1]) | IC50 (CHIR-99021; [1]) | AUC (CHIR-99021; [2]) | IC50 (CHIR-99021; [2]) | AUC (CP466722) | IC50 (CP466722) | AUC (GSK269962A; [3]) | IC50 (GSK269962A; [3]) | AUC (GSK269962A; [4]) | IC50 (GSK269962A; [4]) | AUC (Zibotentan) | IC50 (Zibotentan) | AUC (CMK) | IC50 (CMK) | AUC (MPS-1-IN-1) | IC50 (MPS-1-IN-1) | AUC ((5Z)-7-Oxozeaenol) | IC50 ((5Z)-7-Oxozeaenol) | AUC (ABT-888) | IC50 (ABT-888) | AUC (KU-55933) | IC50 (KU-55933) | AUC (Cytarabine) | IC50 (Cytarabine) | AUC (Thapsigargin) | IC50 (Thapsigargin) | AUC (ABT-869) | IC50 (ABT-869) | AUC (QL-X-138) | IC50 (QL-X-138) |
| --- | --- | --- | --- | --- | --- | --- | --- | --- | --- | --- | --- | --- | --- | --- | --- | --- | --- | --- | --- | --- | --- | --- | --- | --- | --- | --- | --- | --- | --- | --- |
| HA7-RCC (kidney, adherent) | 0.985 | > 2.56 µM | 0.901 | > 10 µM | 0.87 | > 16 µM | 0.968 | > 2.5 µM | 0.929 | > 5 µM | 0.981 | > 20 µM | 0.865 | > 4 µM | 0.882 | > 20 µM | 0.735 | 3.17 µM | 0.98 | > 5 µM | 0.934 | > 10 µM | 0.764 | 0.797 µM | 0.68 | 0.108 µM | 0.98 | > 1.02 µM | 0.895 | > 10.2 µM |
| HAL-01 (lymphoblastic leukaemia, suspension) | 0.984 | > 2.56 µM | 0.89 | 9.23 µM | 0.517 | 1.11 µM | 0.872 | 1.92 µM | 0.811 | 2.27 µM | 0.963 | > 20 µM | 0.921 | > 4 µM | 0.836 | 11.1 µM | 0.584 | 1.03 µM | 0.973 | > 5 µM | 0.857 | 6.64 µM | 0.321 | 0.0423 µM | 0.857 | 0.342 µM | 0.989 | > 1.02 µM | 0.544 | 0.83 µM |
| HCC1187 (breast, suspension) | 0.972 | > 2.56 µM | 0.825 | 5.64 µM | 0.758 | 5.31 µM | 0.955 | > 2.5 µM | – | – | 0.988 | > 20 µM | 0.97 | > 4 µM | 0.938 | > 20 µM | 0.803 | 4.68 µM | 0.984 | > 5 µM | 0.957 | > 10 µM | 0.957 | > 2 µM | 0.791 | 0.218 µM | 0.981 | > 1.02 µM | 0.845 | 6.87 µM |
| HCC2157 (breast, suspension) | 0.987 | > 2.56 µM | 0.98 | > 10 µM | 0.963 | > 16 µM | 0.987 | > 2.5 µM | 0.984 | > 5 µM | 0.987 | > 20 µM | 0.965 | > 4 µM | 0.986 | > 20 µM | 0.796 | 4.96 µM | 0.987 | > 5 µM | 0.868 | 9.84 µM | 0.926 | > 2 µM | 0.228 | 0.00493 µM | 0.987 | > 1.02 µM | 0.783 | 4.56 µM |
| HCC2218 (breast, suspension) | 0.969 | > 2.56 µM | 0.968 | > 10 µM | 0.837 | 14.8 µM | 0.956 | > 2.5 µM | 0.82 | 3.86 µM | 0.959 | > 20 µM | 0.906 | > 4 µM | 0.917 | > 20 µM | 0.868 | > 10 µM | 0.982 | > 5 µM | 0.974 | > 10 µM | 0.984 | > 2 µM | 0.588 | – | 0.978 | > 1.02 µM | 0.567 | 1.02 µM |
| HD-MY-Z (Hodgkin lymphoma, adherent) | 0.984 | > 2.56 µM | 0.872 | 9.64 µM | 0.718 | 4.17 µM | 0.973 | > 2.5 µM | 0.82 | 2.89 µM | 0.98 | > 20 µM | 0.805 | 2.04 µM | 0.926 | > 20 µM | 0.58 | 1.03 µM | 0.967 | > 5 µM | 0.982 | > 10 µM | 0.729 | 0.562 µM | 0.404 | – | 0.977 | > 1.02 µM | 0.586 | 1.1 µM |
| HDLM-2 (Hodgkin lymphoma, suspension) | 0.987 | > 2.56 µM | 0.987 | > 10 µM | 0.618 | 2.1 µM | 0.977 | > 2.5 µM | 0.876 | 4.82 µM | 0.989 | > 20 µM | 0.939 | > 4 µM | 0.989 | > 20 µM | 0.773 | 3.82 µM | 0.982 | > 5 µM | 0.967 | > 10 µM | 0.948 | > 2 µM | 0.719 | 0.132 µM | 0.987 | > 1.02 µM | 0.902 | > 10.2 µM |
| HH (T-cell leukaemia, suspension) | 0.959 | > 2.56 µM | 0.975 | > 10 µM | 0.68 | 3.78 µM | 0.965 | > 2.5 µM | 0.62 | 0.747 µM | 0.963 | > 20 µM | 0.948 | > 4 µM | 0.914 | > 20 µM | 0.638 | 1.71 µM | 0.958 | > 5 µM | 0.838 | > 10 µM | 0.836 | > 2 µM | 0.664 | 0.107 µM | 0.978 | > 1.02 µM | 0.476 | 0.539 µM |
| HSC-39 (stomach, suspension) | 0.991 | > 2.56 µM | 0.971 | > 10 µM | 0.845 | 9.28 µM | 0.98 | > 2.5 µM | 0.848 | 2.96 µM | 0.991 | > 20 µM | 0.983 | > 4 µM | 0.989 | > 20 µM | 0.821 | 4.79 µM | 0.988 | > 5 µM | 0.899 | 9.6 µM | 0.921 | > 2 µM | 0.663 | 0.0843 µM | 0.984 | > 1.02 µM | 0.818 | 4.77 µM |
